Experimental data published in US20260217645A1, “AMINO LIPID COMPOUND, AND PREPARATION METHOD THEREFOR AND USE THEREOF” (SHENZHEN SHENXIN BIOTECHNOLOGY CO., LTD., priority 2023, published 2026).
The name of at least one read-out is uncertain.

The compounds below were run on Female BALB/c mice (assay: In vivo delivery of Fluc mRNA-encapsulating lipid nanoparticles (IVIS luciferase imaging)). Details: Fluc mRNA LNP, tail vein injection (IV), volume injected 50 μL, 6 hours after injection.

With `CCCCCCOC(CCCOC(=O)CCCCCCCCC(CCCCCCCCC(=O)OCCCC(OCCCCCC)OCCCCCC)OC(=O)OCCCN(C)CCCNc1c(NC)c(=O)c1=O)OCCCCCC` [compound 1844] the “Average number of photons (Liver)” value was 1.38E+07 p/s/cm^2/sr.

For `CCCCCCOC(CCCOC(=O)CCCCCCCCC(CCCCCCCCC(=O)OCCCC(OCCCCCC)OCCCCCC)OC(=O)OCCCN(C)CCCNc1c(NC)c(=O)c1=O)OCCCCCC` [compound 1844], the “Average number of photons (Spleen)” value was 6.36E+06 p/s/cm^2/sr.

For `CCCCCCOC(CCCOC(=O)CCCCCCCCC(CCCCCCCCC(=O)OCCCC(OCCCCCC)OCCCCCC)OC(=O)OCCCN(C)CCCNc1c(NC)c(=O)c1=O)OCCCCCC` [compound 1844], the “Average number of photons (Total in-vivo flux)” value was 5.13E+07 p/s/cm^2/sr.

Same assay, conditions: Fluc mRNA LNP, tail vein injection (IV), volume injected 70 μL, 6 hours after injection

First: CCCCCCCSC(CCCOC(=O)CCCCCCCN(CCCCCCCC(=O)OCCCC(SCCCCCCC)SCCCCCCC)CCCNc1c(NC)c(=O)c1=O)SCCCCCCC [compound 1807]
Second: CCCCCCCCCOC(=O)CCCCCCCCC(CCCCCCCCC(=O)OC(CCCCCCCC)CCCCCCCC)N(C)CCCNc1c(NC)c(=O)c1=O (stereo not drawn) [compound 1832]
The “Average number of photons (Liver)” value of the first is higher: 1.94E+07 p/s/cm^2/sr for the first, 6.89E+06 p/s/cm^2/sr for the second.

Going from `CCCCCCCCC(C)OC(=O)CCCCCCCCC(CCCCCCCCC(=O)OC(CCCCCCCC)CCCCCCCC)N(C)CCCNc1c(NC)c(=O)c1=O` (stereo not drawn) [compound 1831] to `CCCCCCCCOC(=O)CCCCCCCCC(CCCCCCCCC(=O)OC(CCCCCCCC)CCCCCCCC)N(C)CCCNc1c(NC)c(=O)c1=O` (stereo not drawn) [compound 1833], the “Average number of photons (Liver)” value falls from 4.13E+07 p/s/cm^2/sr to 1.42E+07 p/s/cm^2/sr.

Compared with `CCCCCCCCC(CCCCCCCC)OC(=O)CCCCCCCCC(CCCCCCCCC(=O)OCCCCCCC)N(C)CCCNc1c(NC)c(=O)c1=O` (stereo not drawn) [compound 1834], `CCCCCCCCC(CCCCCCCC)OC(=O)CCCCCCCN(CCCCCCOC(=O)SC(C)CCCCCCCC)CCCNc1c(NC)c(=O)c1=O` (stereo not drawn) [compound 1855] is lower in “Average number of photons (Liver)” value: 2.49E+07 p/s/cm^2/sr for the first, 3.14E+06 p/s/cm^2/sr for the second.

Compared with `CCCCCCOC(CCCOC(=O)CCCCCCCCC(CCCCCCCCC(=O)OCCCC(OCCCCCC)OCCCCCC)OC(=O)CCN(C)CCCNc1c(NC)c(=O)c1=O)OCCCCCC` [compound 1843], `CCCCCCOC(CCCOC(=O)CCCCCCCCC(CCCCCCCCC(=O)OCCCC(OCCCCCC)OCCCCCC)OC(=O)NCCN(C)CCCNc1c(NC)c(=O)c1=O)OCCCCCC` [compound 1847] is lower in “Average number of photons (Liver)” value: 2.02E+07 p/s/cm^2/sr for the first, 5.53E+06 p/s/cm^2/sr for the second.

Compared with `CCCCCCOC(CCCOC(=O)CCCCCCCCC(CCCCCCCCC(=O)OCCCC(OCCCCCC)OCCCCCC)OC(=O)NCCCN(C)CCCNc1c(NC)c(=O)c1=O)OCCCCCC` [compound 1845], `CCCCCCOC(CCCOC(=O)CCCCCCCCC(CCCCCCCCC(=O)OCCCC(OCCCCCC)OCCCCCC)OC(=O)NCCCN(C)CCNc1c(NC)c(=O)c1=O)OCCCCCC` [compound 1849] is lower in “Average number of photons (Liver)” value: 5.57E+06 p/s/cm^2/sr for the first, 3.64E+06 p/s/cm^2/sr for the second.

`CCCCCCCCC(C)OC(=O)CCCCCCCN(CCCCCCOC(=O)SC(CCCCCCCC)CCCCCCCC)CCCNc1c(NC)c(=O)c1=O` (stereo not drawn) [compound 1854] was tested, and the “Average number of photons (Liver)” value was 9.43E+07 p/s/cm^2/sr.

First: CCCCCCCSC(CCCOC(=O)CCCCCCCN(CCCCCCCC(=O)OCCCC(SCCCCCCC)SCCCCCCC)CCCNc1c(NC)c(=O)c1=O)SCCCCCCC [compound 1807]
Second: CCCCCCCCCOC(=O)CCCCCCCCC(CCCCCCCCC(=O)OC(CCCCCCCC)CCCCCCCC)N(C)CCCNc1c(NC)c(=O)c1=O (stereo not drawn) [compound 1832]
The “Average number of photons (Spleen)” value of the first is higher: 5.70E+06 p/s/cm^2/sr for the first, 7.87E+05 p/s/cm^2/sr for the second.

Going from `CCCCCCCCC(C)OC(=O)CCCCCCCCC(CCCCCCCCC(=O)OC(CCCCCCCC)CCCCCCCC)N(C)CCCNc1c(NC)c(=O)c1=O` (stereo not drawn) [compound 1831] to `CCCCCCCCOC(=O)CCCCCCCCC(CCCCCCCCC(=O)OC(CCCCCCCC)CCCCCCCC)N(C)CCCNc1c(NC)c(=O)c1=O` (stereo not drawn) [compound 1833], the “Average number of photons (Spleen)” value falls from 2.33E+06 p/s/cm^2/sr to 1.50E+06 p/s/cm^2/sr.

Going from `CCCCCCCCC(CCCCCCCC)OC(=O)CCCCCCCCC(CCCCCCCCC(=O)OCCCCCCC)N(C)CCCNc1c(NC)c(=O)c1=O` (stereo not drawn) [compound 1834] to `CCCCCCCCC(CCCCCCCC)OC(=O)CCCCCCCN(CCCCCCOC(=O)SC(C)CCCCCCCC)CCCNc1c(NC)c(=O)c1=O` (stereo not drawn) [compound 1855], the “Average number of photons (Spleen)” value falls from 9.77E+05 p/s/cm^2/sr to 4.70E+05 p/s/cm^2/sr.

Compared with `CCCCCCOC(CCCOC(=O)CCCCCCCCC(CCCCCCCCC(=O)OCCCC(OCCCCCC)OCCCCCC)OC(=O)CCN(C)CCCNc1c(NC)c(=O)c1=O)OCCCCCC` [compound 1843], `CCCCCCOC(CCCOC(=O)CCCCCCCCC(CCCCCCCCC(=O)OCCCC(OCCCCCC)OCCCCCC)OC(=O)NCCN(C)CCCNc1c(NC)c(=O)c1=O)OCCCCCC` [compound 1847] is lower in “Average number of photons (Spleen)” value: 3.47E+06 p/s/cm^2/sr for the first, 1.27E+06 p/s/cm^2/sr for the second.

Compared with `CCCCCCOC(CCCOC(=O)CCCCCCCCC(CCCCCCCCC(=O)OCCCC(OCCCCCC)OCCCCCC)OC(=O)NCCCN(C)CCCNc1c(NC)c(=O)c1=O)OCCCCCC` [compound 1845], `CCCCCCOC(CCCOC(=O)CCCCCCCCC(CCCCCCCCC(=O)OCCCC(OCCCCCC)OCCCCCC)OC(=O)NCCCN(C)CCNc1c(NC)c(=O)c1=O)OCCCCCC` [compound 1849] is lower in “Average number of photons (Spleen)” value: 4.88E+06 p/s/cm^2/sr for the first, 1.60E+06 p/s/cm^2/sr for the second.

For `CCCCCCCCC(C)OC(=O)CCCCCCCN(CCCCCCOC(=O)SC(CCCCCCCC)CCCCCCCC)CCCNc1c(NC)c(=O)c1=O` (stereo not drawn) [compound 1854], the “Average number of photons (Spleen)” value was 1.75E+07 p/s/cm^2/sr.

First: CCCCCCCSC(CCCOC(=O)CCCCCCCN(CCCCCCCC(=O)OCCCC(SCCCCCCC)SCCCCCCC)CCCNc1c(NC)c(=O)c1=O)SCCCCCCC [compound 1807]
Second: CCCCCCCCCOC(=O)CCCCCCCCC(CCCCCCCCC(=O)OC(CCCCCCCC)CCCCCCCC)N(C)CCCNc1c(NC)c(=O)c1=O (stereo not drawn) [compound 1832]
The “Average number of photons (Total in-vivo flux)” value of the first is higher: 9.77E+07 p/s/cm^2/sr for the first, 1.39E+07 p/s/cm^2/sr for the second.

Going from `CCCCCCCCC(C)OC(=O)CCCCCCCCC(CCCCCCCCC(=O)OC(CCCCCCCC)CCCCCCCC)N(C)CCCNc1c(NC)c(=O)c1=O` (stereo not drawn) [compound 1831] to `CCCCCCCCOC(=O)CCCCCCCCC(CCCCCCCCC(=O)OC(CCCCCCCC)CCCCCCCC)N(C)CCCNc1c(NC)c(=O)c1=O` (stereo not drawn) [compound 1833], the “Average number of photons (Total in-vivo flux)” value falls from 1.77E+08 p/s/cm^2/sr to 3.88E+07 p/s/cm^2/sr.

Compared with `CCCCCCCCC(CCCCCCCC)OC(=O)CCCCCCCCC(CCCCCCCCC(=O)OCCCCCCC)N(C)CCCNc1c(NC)c(=O)c1=O` (stereo not drawn) [compound 1834], `CCCCCCCCC(CCCCCCCC)OC(=O)CCCCCCCN(CCCCCCOC(=O)SC(C)CCCCCCCC)CCCNc1c(NC)c(=O)c1=O` (stereo not drawn) [compound 1855] is higher in “Average number of photons (Total in-vivo flux)” value: 6.48E+07 p/s/cm^2/sr for the first, 2.12E+08 p/s/cm^2/sr for the second.

Going from `CCCCCCOC(CCCOC(=O)CCCCCCCCC(CCCCCCCCC(=O)OCCCC(OCCCCCC)OCCCCCC)OC(=O)CCN(C)CCCNc1c(NC)c(=O)c1=O)OCCCCCC` [compound 1843] to `CCCCCCOC(CCCOC(=O)CCCCCCCCC(CCCCCCCCC(=O)OCCCC(OCCCCCC)OCCCCCC)OC(=O)NCCN(C)CCCNc1c(NC)c(=O)c1=O)OCCCCCC` [compound 1847], the “Average number of photons (Total in-vivo flux)” value falls from 9.00E+07 p/s/cm^2/sr to 1.91E+07 p/s/cm^2/sr.

Going from `CCCCCCOC(CCCOC(=O)CCCCCCCCC(CCCCCCCCC(=O)OCCCC(OCCCCCC)OCCCCCC)OC(=O)NCCCN(C)CCCNc1c(NC)c(=O)c1=O)OCCCCCC` [compound 1845] to `CCCCCCOC(CCCOC(=O)CCCCCCCCC(CCCCCCCCC(=O)OCCCC(OCCCCCC)OCCCCCC)OC(=O)NCCCN(C)CCNc1c(NC)c(=O)c1=O)OCCCCCC` [compound 1849], the “Average number of photons (Total in-vivo flux)” value rises from 1.27E+07 p/s/cm^2/sr to 1.30E+07 p/s/cm^2/sr.

For `CCCCCCCCC(C)OC(=O)CCCCCCCN(CCCCCCOC(=O)SC(CCCCCCCC)CCCCCCCC)CCCNc1c(NC)c(=O)c1=O` (stereo not drawn) [compound 1854], the “Average number of photons (Total in-vivo flux)” value was 4.55E+08 p/s/cm^2/sr.
